The other results are listed elsewhere or left out. Cut-off read from the data, not from the text of the source: active = 3.2 or more and inactive = the rest. Most of these values are background signal.
B1: AICDA_Y146 (peptide)
chain: FKDYFYCWNTF
B2: AICDA_Y146_F151S_YF (peptide)
chain: FKDFFYCWNTS
B3: AIFM1_Y347_L344F (peptide)
chain: KIFPEYLSNWT
B4: AIPL1_Y267 (peptide)
chain: GIVKAYYVRAR
B5: AIPL1_Y267_YF (peptide)
chain: GIVKAYFVRAR
B6: AIPL1_Y268 (peptide)
chain: IVKAYYVRARA
B7: AIPL1_Y268_R270H (peptide)
chain: IVKAYYVHARA
B8: AK7_Y390_YF (peptide)
chain: KELANYFKLHH
B9: AKAP4_Y554_T557I (peptide)
chain: LKLIQYHLIQQ
B10: AKAP9_Y2482 (peptide)
chain: LENQTYFKSFE
B11: AKR1B10_Y310_N313D (peptide)
chain: SHLEDYPFDAE
B12: AKR1B10_Y316_N313D (peptide)
chain: PFDAEYGGGGG
B13: AKR1C2_Y305_N300T (peptide)
chain: TRNVRYLTLDI
B14: AKR1C2_Y81_I79V (peptide)
chain: REDVFYTSKLW
B15: AKT1_Y437 (peptide)
chain: ETDTRYFDEEF
B16: AKT3_Y173_G171R (peptide)
chain: KASRKYYAMKI
B17: AKT3_Y174_YF (peptide)
chain: ASGKFYAMKIL
B18: ALAS2_Y199 (peptide)
chain: WCSNDYLGMSR

Molecular target: SHP2 C-SH2 domain E139D
Experiment: enrichment score (SH2-bound / input frequency) (ratio); bacterial display of known human phosphotyrosine sites (pTyr-Var adds point mutants) read by sequencing; higher = stronger binding; tyrosines were phosphorylated by kinases first
Conditions: peptide library: pTyr-Var
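Note: displayed peptides selected on beads carrying the immobilized SH2 domain, with library peptides lacking any tyrosine serving as negative controls.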

Binder | enrichment score
B1 | inactive: 1.14
B2 | inactive: 1.05
B3 | inactive: 1.27
B4 | inactive: 0.294
B5 | inactive: 0.43
B6 | inactive: 0.391
B7 | inactive: 2.24
B8 | inactive: 1.42
B9 | active: 3.83
B10 | inactive: 1.07
B11 | inactive: 0.542
B12 | inactive: 0.554
B13 | inactive: 1.24
B14 | inactive: 1.15
B15 | inactive: 0.571
B16 | inactive: 0.619
B17 | inactive: 1.06
B18 | inactive: 0.984

Molecular target: SHP2 C-SH2 domain wild-type
Experiment: as above
Conditions: peptide library: pTyr-Var

Binder | enrichment score
B1 | inactive: 1.52
B2 | inactive: 1.44
B3 | inactive: 1.14
B4 | inactive: 0.279
B5 | inactive: 0.368
B6 | inactive: 0.344
B7 | inactive: 2.2
B8 | inactive: 1.16
B9 | active: 4.35
B10 | inactive: 1.07
B11 | inactive: 0.647
B12 | inactive: 0.523
B13 | inactive: 2.6
B14 | inactive: 0.759
B15 | inactive: 0.623
B16 | inactive: 0.715
B17 | inactive: 1.1
B18 | inactive: 1.06

Molecular target: SHP2 N-SH2 domain L43F
Experiment: as above
Conditions: peptide library: pTyr-Var

Binder | enrichment score
B1 | inactive: 0.999
B2 | inactive: 1.31
B3 | inactive: 1.13
B4 | inactive: 0.309
B5 | inactive: 0.293
B6 | inactive: 0.451
B7 | inactive: 1.78
B8 | inactive: 0.889
B9 | active: 5.8
B10 | inactive: 0.754
B11 | inactive: 0.492
B12 | inactive: 0.62
B13 | active: 9.03
B14 | inactive: 0.785
B15 | inactive: 0.493
B16 | inactive: 0.511
B17 | inactive: 0.958
B18 | inactive: 1.02

Molecular target: SHP2 N-SH2 domain T42A
Experiment: as above
Conditions: peptide library: pTyr-Var

Binder | enrichment score
B1 | inactive: 0.912
B2 | inactive: 0.984
B3 | inactive: 1.46
B4 | inactive: 0.276
B5 | inactive: 0.344
B6 | inactive: 0.361
B7 | inactive: 1.77
B8 | inactive: 1.13
B9 | active: 4.05
B10 | inactive: 0.607
B11 | inactive: 0.539
B12 | inactive: 0.692
B13 | active: 21.5
B14 | inactive: 1.57
B15 | inactive: 0.462
B16 | inactive: 0.654
B17 | inactive: 1.03
B18 | inactive: 0.977

Molecular target: SHP2 N-SH2 domain T52S
Experiment: as above
Conditions: peptide library: pTyr-Var

Binder | enrichment score
B1 | inactive: 1.04
B2 | inactive: 1.01
B3 | inactive: 1.31
B4 | inactive: 0.364
B5 | inactive: 0.435
B6 | inactive: 0.387
B7 | inactive: 2.09
B8 | inactive: 1.16
B9 | active: 5.99
B10 | inactive: 0.992
B11 | inactive: 0.616
B12 | inactive: 0.588
B13 | active: 11.5
B14 | inactive: 0.938
B15 | inactive: 0.522
B16 | inactive: 0.528
B17 | inactive: 1.01
B18 | inactive: 0.885

Molecular target: SHP2 N-SH2 domain wild-type
Experiment: as above
Conditions: peptide library: pTyr-Var

Binder | enrichment score
B1 | inactive: 1.29
B2 | inactive: 1.59
B3 | inactive: 1.18
B4 | inactive: 0.293
B5 | inactive: 0.27
B6 | inactive: 0.368
B7 | inactive: 1.92
B8 | inactive: 1.15
B9 | active: 3.58
B10 | inactive: 1.03
B11 | inactive: 0.59
B12 | inactive: 0.909
B13 | active: 3.56
B14 | inactive: 0.928
B15 | inactive: 0.606
B16 | inactive: 0.795
B17 | inactive: 1.22
B18 | inactive: 0.842
